Reference: PubChem BioAssay AID1508642 (National Center for Advancing Translational Sciences (NCATS), 2021)
Among all 43,000 compounds or so, about 200 (0.47%) were called active. Inconclusive results (about 12%) are left out. The call rests on the fitted dose curve; in most records, active means well fitted cell-killing curve with a large enough effect; inconclusive means small, poorly fitted or top-dose-only effect, or effect the other way; inactive means flat fitted curve, though single readings scatter. This is one part of the list.

Assay: Cell viability qHTS assay in S16 Pmp22-F2sN cells; further: nearly all actives have a fitted effect of over 65% in size
Settings: S16 Pmp22-F2sN Schwann cells (luciferase reporters placed in the Pmp22 gene) viability, CellTiter-Glo, 24 h; series mostly up to 57.5 µM; activity change, negative = cytotoxicity: at the top concentration
Outline: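 Seed 500-1,000 S16 Pmp22-F2sN cells per well in phenol-red-free DMEM with 10% heat-inactivated FBS; pin-add 23 nL compound; incubate 24 h at 37C; add CellTiter-Glo, wait 15 min protected from light; read luminescence.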
On the % scale 0 is the no-effect control and ±100 the full control effect.

For `COC(=O)c1ccc2c(=O)n(CCCCCC(=O)NCc3ccccc3)c(=O)[nH]c2c1`, which “activity change, negative = cytotoxicity” value is on record?
Its value is inactive: 9.12%.

With `CCc1ccc(NC(=O)c2cc(-c3cccs3)on2)cc1` as the compound, how does the “activity change, negative = cytotoxicity” value read?
Its value is inactive: 2.91%.

Which “activity change, negative = cytotoxicity” value does the source give for `O=C(CN1CCSc2ccccc21)N1CCN(c2ccccc2)CC1` here?
The value was inactive: -6.1%.

Which “activity change, negative = cytotoxicity” value does the source give for `CCn1cc(C2N3CC4(CC)CN2CC(CC)(C3)C4=O)c2ccccc21` (configuration not stated) here?
Its value is inactive: 5.09%.

With `O=C(c1cnc2cc(-c3ccccc3)nn2c1)c1cc([N+](=O)[O-])ccc1O` as the compound, how does the “activity change, negative = cytotoxicity” value read?
Its value is inactive: -13.1%.

Which “activity change, negative = cytotoxicity” value does the source give for `CCCn1c(=N)c(C(=O)NCc2cccnc2)cc2c(=O)n3cc(C)ccc3nc21` here?
The value was inactive: -1.6%.

Which “activity change, negative = cytotoxicity” value does the source give for `O=C(C1CCCN(S(=O)(=O)c2cccc3nonc23)C1)N1CCN(c2cccc(Cl)c2)CC1` (configuration not stated) here?
The value was inactive: -23.4%.

With `CCOc1ccccc1CNc1ncnc2c1nc1n2CCCC1` as the compound, how does the “activity change, negative = cytotoxicity” value read?
Its value is inactive: 1.58%.

Which “activity change, negative = cytotoxicity” value does the source give for `CSc1ccc(CCNC(=O)CCc2c(C)nc3c(-c4ccccc4)c(C)nn3c2C)cc1` here?
The value was inactive: -3.48%.

With `Cc1ccccc1Cn1nc(C)c(NC(=O)c2cc(-c3ccc(F)cc3)on2)c1C` as the compound, how does the “activity change, negative = cytotoxicity” value read?
Its value is inactive: 15.2%.

With `Cc1cc(C)c2c(=O)c3c(oc2c1)C(=O)N(Cc1ccc(F)cc1)C3c1cccc(O)c1` (configuration not stated) as the compound, how does the “activity change, negative = cytotoxicity” value read?
Its value is inactive: -18.3%.

Which “activity change, negative = cytotoxicity” value does the source give for `O=C(COc1ccc(Cl)cc1)Nc1ccccc1C(=O)OCc1cc(=O)n2ccsc2n1` here?
The value was inactive: -3.48%.

With `CCCC(=O)NCC(c1ccc2c(c1)OCO2)N1CCOCC1` (configuration not stated) as the compound, how does the “activity change, negative = cytotoxicity” value read?
Its value is inactive: -3.57%.

With `Cc1ccc(CNC(=O)CN(c2ccc(C(C)C)cc2)S(=O)(=O)c2c(C)n[nH]c2C)cc1` as the compound, how does the “activity change, negative = cytotoxicity” value read?
The value was inactive: -10.7%.

For `CC(C)(C)CC(=O)Nc1nnc2n1CCS2`, which “activity change, negative = cytotoxicity” value is on record?
Its value is inactive: -2.45%.

For `COc1ccc(Cn2ccnc2SCC(=O)Nc2ccc(C)cc2C)cc1`, which “activity change, negative = cytotoxicity” value is on record?
Its value is inactive: -3.17%.

Which “activity change, negative = cytotoxicity” value does the source give for `CC1CCN(C(=O)CN2CCSc3ccccc32)CC1` here?
Its value is inactive: -17.9%.

With `CC(NC(=O)c1nn(C)c2c1CSc1ccccc1-2)c1ccccc1` (configuration not stated) as the compound, how does the “activity change, negative = cytotoxicity” value read?
Its value is inactive: 2.74%.

Which “activity change, negative = cytotoxicity” value does the source give for `O=C(Nc1ccc(SC(F)F)cc1)c1cc(-c2cccs2)on1` here?
Its value is inactive: -3.48%.

For `COC(=O)c1sc2cccc(F)c2c1S(=O)(=O)N1CCN(c2ccccc2OC)CC1`, which “activity change, negative = cytotoxicity” value is on record?
Its value is inactive: 6.96%.

For `O=C(CCS(=O)(=O)c1cccs1)Nc1ccc(C(=O)Nc2cccc(Cl)c2)cc1`, which “activity change, negative = cytotoxicity” value is on record?
The value was inactive: 23.9%.

Which “activity change, negative = cytotoxicity” value does the source give for `COc1cc(OC)cc(C(=O)N2CCC(c3ccncc3)CC2)c1` here?
The value was inactive: 1.16%.

Which “activity change, negative = cytotoxicity” value does the source give for `COc1ccc(CNc2ccc3cc(S(=O)(=O)N4CCCCC4)ccc3n2)cc1` here?
The value was inactive: -25.9%.

With `Cc1ccc(C)c(NC(=O)CN2C(=O)CSc3nc(C)cc(C)c32)c1` as the compound, how does the “activity change, negative = cytotoxicity” value read?
Its value is inactive: -1.81%.

Which “activity change, negative = cytotoxicity” value does the source give for `O=C(Cc1ccccc1)Nc1c(C(=O)N2CCN(c3ccc(F)cc3)CC2)oc2ccccc12` here?
Its value is inactive: -3.19%.

For `Cc1ccc(-c2cc(NC(=O)C(C)Oc3ccc(C)c(C)c3)on2)cc1` (configuration not stated), which “activity change, negative = cytotoxicity” value is on record?
The value was inactive: -19.9%.

Which “activity change, negative = cytotoxicity” value does the source give for `CCOc1ccc(C(=O)Nc2nnc(S(=O)(=O)N(CC)c3ccccc3C)s2)cc1` here?
Its value is inactive: -14.5%.

For `O=C(NCCc1ccccc1)c1ccc2c(c1)CCN2S(=O)(=O)c1ccc(Br)cc1`, which “activity change, negative = cytotoxicity” value is on record?
The value was inactive: -15%.

For `CSc1cccc(NC(=O)C2CCN(c3ncnc4c3nc3n4CCCCC3)CC2)c1`, which “activity change, negative = cytotoxicity” value is on record?
The value was inactive: -16.9%.

Which “activity change, negative = cytotoxicity” value does the source give for `O=C(c1ccc(F)cc1)N1CCC(c2nc3ccccc3o2)CC1` here?
Its value is inactive: 22.2%.

With `CC(C)NC(=O)CC(=O)Nc1ccc2nc3n(c(=O)c2c1)CCCCC3` as the compound, how does the “activity change, negative = cytotoxicity” value read?
The value was inactive: 23.7%.

For `CCOc1ccccc1NC(=O)C(NS(=O)(=O)c1ccc2c(c1)CCC(=O)N2)c1ccccc1` (configuration not stated), which “activity change, negative = cytotoxicity” value is on record?
Its value is inactive: 9.96%.

Which “activity change, negative = cytotoxicity” value does the source give for `O=C(NC1CCCCCC1)c1cc2c(Cl)nc3ccccc3c2s1` here?
The value was inactive: -8.64%.

For `O=C(c1ccc2c(c1)N(Cc1ccc(Cl)cc1)C(=O)c1ccccc1S2=O)N1CCN(c2ccccc2F)CC1` (configuration not stated), which “activity change, negative = cytotoxicity” value is on record?
The value was inactive: 0.847%.

Which “activity change, negative = cytotoxicity” value does the source give for `COc1ccc(-c2nc(C(N)=O)c3c(n2)n(-c2ccccc2OC)c(=O)n3C)c(OC)c1` here?
Its value is inactive: 0.441%.

With `CCCCOc1ccc(C(=O)N2CCC(c3nc4ccccc4o3)CC2)cc1` as the compound, how does the “activity change, negative = cytotoxicity” value read?
The value was inactive: 1.48%.

For `CCOC(=O)c1ccc(NC(=O)C2=C(C)Nc3nc(SCc4ccc(Cl)cc4)nn3C2c2ccc(C)cc2)cc1` (configuration not stated), which “activity change, negative = cytotoxicity” value is on record?
Its value is inactive: -4.27%.

With `CCOc1ccc(CC(=O)NCCc2csc(-c3ccc(C(F)(F)F)cc3)n2)cc1` as the compound, how does the “activity change, negative = cytotoxicity” value read?
The value was inactive: 0.43%.

Which “activity change, negative = cytotoxicity” value does the source give for `Cc1nn(C(=O)COc2ccccc2)c(C)c1Sc1ccccc1` here?
Its value is inactive: 21.9%.

Which “activity change, negative = cytotoxicity” value does the source give for `COc1ccc(CNC(=O)c2ccc3c(c2)N(C)C(=O)C2CCCCN32)cc1OC` (configuration not stated) here?
Its value is inactive: 4.07%.

For `CC(C)(C)c1ccc(Oc2nc3ccccn3c(=O)c2/C=C(\C#N)c2nc3ccccc3[nH]2)cc1`, which “activity change, negative = cytotoxicity” value is on record?
The value was inactive: 3.38%.

Which “activity change, negative = cytotoxicity” value does the source give for `O=C(CCC(=O)N1CC2CCCN2c2ccccc21)NCc1ccccc1` (configuration not stated) here?
The value was inactive: -13.2%.

For `O=C(NC1CC(=O)N(c2ccccc2)C1)c1ccc(Br)o1` (configuration not stated), which “activity change, negative = cytotoxicity” value is on record?
Its value is inactive: 5.48%.

With `O=C(NCCCN1CCN(c2cccc(Cl)c2)CC1)Nc1ccccc1C(F)(F)F` as the compound, how does the “activity change, negative = cytotoxicity” value read?
The value was inactive: -21.9%.

With `COc1cccc(CNC(=O)C2CCN(c3nn4c(=O)cc(C)nc4s3)CC2)c1` as the compound, how does the “activity change, negative = cytotoxicity” value read?
The value was inactive: 6.65%.

Which “activity change, negative = cytotoxicity” value does the source give for `Cc1cccc(N(CC(=O)NCCSCc2ccc(Cl)cc2)S(C)(=O)=O)c1C` here?
The value was inactive: -18.5%.

For `CCOc1ccc(NC(=O)c2cc3c(n(-c4ccc(OC)cc4)c2=O)CC(C)(C)CC3=O)cc1`, which “activity change, negative = cytotoxicity” value is on record?
Its value is inactive: 1.02%.

With `COc1ccccc1Cn1c(CNS(=O)(=O)c2ccccc2Cl)nc2cccnc21` as the compound, how does the “activity change, negative = cytotoxicity” value read?
Its value is inactive: 8.69%.

Which “activity change, negative = cytotoxicity” value does the source give for `CC(=O)c1cccc(NC(=O)c2cccn2-c2nnc(N3CCCCC3)s2)c1` here?
The value was inactive: 1.82%.

For `COc1ccc(NC(=O)CN2C(=O)COc3ccc(S(=O)(=O)Nc4ccccc4)cc32)cc1OC`, which “activity change, negative = cytotoxicity” value is on record?
The value was inactive: 9.43%.

With `CCN(c1cccc(C)c1)S(=O)(=O)c1ccc2c(c1)NC(=O)CCS2` as the compound, how does the “activity change, negative = cytotoxicity” value read?
Its value is inactive: -0.425%.

For `O=C(COCc1cc(-c2cccs2)on1)Nc1cccc(Cl)c1Cl`, which “activity change, negative = cytotoxicity” value is on record?
Its value is inactive: 23%.

For `CCN(CC)C(=O)Cn1cc(SCC(=O)Nc2ccccc2F)c2ccccc21`, which “activity change, negative = cytotoxicity” value is on record?
The value was inactive: 4.14%.

Which “activity change, negative = cytotoxicity” value does the source give for `CCOC(=O)Cn1c(=O)oc2cc(S(=O)(=O)N3CCN(c4ccccc4F)CC3)ccc21` here?
Its value is inactive: -2.83%.

Which “activity change, negative = cytotoxicity” value does the source give for `CCn1cc(C(=O)N2CCN(c3ccc(F)cc3)CC2)c(=O)c2cc(S(=O)(=O)N3CCOCC3)ccc21` here?
The value was inactive: -3.21%.

With `COc1ccc(NC(=O)C(=O)NCC(c2ccc3c(c2)OCO3)N2CCN(C)CC2)cc1` (configuration not stated) as the compound, how does the “activity change, negative = cytotoxicity” value read?
Its value is inactive: 16.3%.

Which “activity change, negative = cytotoxicity” value does the source give for `Cc1oc(-c2ccc(Cl)cc2)nc1Cn1c(=O)cc(C)c2c(C)nn(-c3cccc(F)c3)c21` here?
The value was inactive: 0.482%.

With `Cc1ccc(C(=O)Nc2ccc(C(=O)OCc3cc(=O)n4nc(C5CC5)sc4n3)cc2)cc1` as the compound, how does the “activity change, negative = cytotoxicity” value read?
Its value is inactive: 0.857%.

Which “activity change, negative = cytotoxicity” value does the source give for `CC(=O)Nc1cccc(NC(=O)CSc2cn(CC(=O)N(C(C)C)C(C)C)c3ccccc23)c1` here?
Its value is inactive: -1.72%.

For `CCOc1cc(CNC(=O)CCCn2c(=O)c3cccn3c3cccnc32)cc(OCC)c1OCC`, which “activity change, negative = cytotoxicity” value is on record?
The value was inactive: 8.5%.

For `COc1ccc(CCNC(=O)c2cc(Nc3cc(C)cc(C)c3)nc3ccccc23)cc1OC`, which “activity change, negative = cytotoxicity” value is on record?
The value was inactive: -3.23%.

Which “activity change, negative = cytotoxicity” value does the source give for `CCc1ccccc1NC(=O)Cn1nnc(-c2nc(-c3ccc(C)cc3)no2)c1N` here?
The value was inactive: 2.7%.
